Assay results taken from paper PMC5482489.
Results are given in words; binding and its absence hold for the method and conditions named. In cells and extracts the contact can be indirect. Some results given as binding are weak or reduced against the parent protein; the word gives no strength. For some of these results: Where a sequence is shown, tags or fusion partners need not be part of it.

T1: FLAG-tagged OATP1B3 (human) (UniProt Q9NPD5)
T1 sequence: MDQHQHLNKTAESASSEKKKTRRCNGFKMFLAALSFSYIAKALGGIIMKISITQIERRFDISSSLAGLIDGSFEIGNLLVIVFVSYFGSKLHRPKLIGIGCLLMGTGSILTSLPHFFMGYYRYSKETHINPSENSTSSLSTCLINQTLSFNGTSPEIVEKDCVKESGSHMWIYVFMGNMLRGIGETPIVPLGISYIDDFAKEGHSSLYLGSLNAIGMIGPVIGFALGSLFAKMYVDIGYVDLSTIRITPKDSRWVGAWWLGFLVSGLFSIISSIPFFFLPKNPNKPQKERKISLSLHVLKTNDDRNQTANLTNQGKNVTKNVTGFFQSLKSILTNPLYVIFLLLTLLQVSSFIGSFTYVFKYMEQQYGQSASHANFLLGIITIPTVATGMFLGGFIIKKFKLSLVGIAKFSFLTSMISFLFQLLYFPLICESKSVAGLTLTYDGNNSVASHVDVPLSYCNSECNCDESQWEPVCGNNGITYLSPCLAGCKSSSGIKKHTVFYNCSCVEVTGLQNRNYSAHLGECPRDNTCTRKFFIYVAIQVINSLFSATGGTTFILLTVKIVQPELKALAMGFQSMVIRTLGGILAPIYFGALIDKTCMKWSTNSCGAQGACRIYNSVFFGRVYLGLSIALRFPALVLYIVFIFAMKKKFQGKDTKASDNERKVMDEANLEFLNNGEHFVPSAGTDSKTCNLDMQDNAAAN

T2: OATP1B3, endogenous in human liver (human (endogenous in liver tissue)) (UniProt Q9NPD5)
T2 sequence: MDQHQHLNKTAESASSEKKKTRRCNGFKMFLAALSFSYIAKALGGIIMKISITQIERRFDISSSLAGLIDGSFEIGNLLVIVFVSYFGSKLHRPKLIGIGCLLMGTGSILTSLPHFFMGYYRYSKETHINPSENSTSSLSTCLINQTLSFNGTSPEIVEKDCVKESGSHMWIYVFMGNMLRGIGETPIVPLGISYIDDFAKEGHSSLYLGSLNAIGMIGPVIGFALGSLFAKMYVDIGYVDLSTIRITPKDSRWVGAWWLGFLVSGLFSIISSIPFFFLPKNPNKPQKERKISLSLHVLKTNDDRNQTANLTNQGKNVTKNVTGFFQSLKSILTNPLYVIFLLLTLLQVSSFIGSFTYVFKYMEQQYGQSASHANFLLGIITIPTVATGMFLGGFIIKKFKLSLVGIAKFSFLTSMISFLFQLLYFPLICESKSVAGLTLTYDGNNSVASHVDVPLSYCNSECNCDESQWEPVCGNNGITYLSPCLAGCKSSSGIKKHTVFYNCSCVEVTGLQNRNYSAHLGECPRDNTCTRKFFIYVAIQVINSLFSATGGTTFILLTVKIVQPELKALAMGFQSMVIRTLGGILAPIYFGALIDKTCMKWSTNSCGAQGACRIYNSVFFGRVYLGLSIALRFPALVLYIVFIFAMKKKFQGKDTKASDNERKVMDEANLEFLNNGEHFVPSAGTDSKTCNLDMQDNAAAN

B1: His-tagged OATP1B1 (protein, UniProt Q9Y6L6 1-691)
chain: MDQNQHLNKTAEAQPSENKKTRYCNGLKMFLAALSLSFIAKTLGAIIMKSSIIHIERRFEISSSLVGFIDGSFEIGNLLVIVFVSYFGSKLHRPKLIGIGCFIMGIGGVLTALPHFFMGYYRYSKETNINSSENSTSTLSTCLINQILSLNRASPEIVGKGCLKESGSYMWIYVFMGNMLRGIGETPIVPLGLSYIDDFAKEGHSSLYLGILNAIAMIGPIIGFTLGSLFSKMYVDIGYVDLSTIRITPTDSRWVGAWWLNFLVSGLFSIISSIPFFFLPQTPNKPQKERKASLSLHVLETNDEKDQTANLTNQGKNITKNVTGFFQSFKSILTNPLYVMFVLLTLLQVSSYIGAFTYVFKYVEQQYGQPSSKANILLGVITIPIFASGMFLGGYIIKKFKLNTVGIAKFSCFTAVMSLSFYLLYFFILCENKSVAGLTMTYDGNNPVTSHRDVPLSYCNSDCNCDESQWEPVCGNNGITYISPCLAGCKSSSGNKKPIVFYNCSCLEVTGLQNRNYSAHLGECPRDDACTRKFYFFVAIQVLNLFFSALGGTSHVMLIVKIVQPELKSLALGFHSMVIRALGGILAPIYFGALIDTTCIKWSTNNCGTRGSCRTYNSTSFSRVYLGLSSMLRVSSLVLYIILIYAMKKKYQEKDINASENGSVMDEANLESLNKNKHFVPSAGADSETHC
B2: His-tagged NTCP (Na+/Taurocholate Cotransporting Polypeptide) (protein, UniProt Q14973 1-349)
chain: MEAHNASAPFNFTLPPNFGKRPTDLALSVILVFMLFFIMLSLGCTMEFSKIKAHLWKPKGLAIALVAQYGIMPLTAFVLGKVFRLKNIEALAILVCGCSPGGNLSNVFSLAMKGDMNLSIVMTTCSTFCALGMMPLLLYIYSRGIYDGDLKDKVPYKGIVISLVLVLIPCTIGIVLKSKRPQYMRYVIKGGMIIILLCSVAVTVLSAINVGKSIMFAMTPLLIATSSLMPFIGFLLGYVLSALFCLNGRCRRTVSMETGCQNVQLCSTILNVAFPPEVIGPLFFFPLLYMIFQLGEGLLLIAIFWCYEKFKTPKDKTKMIYTAATTEETIPGALGNGTYKGEDCSPCTA
B3: NTCP, endogenous in human liver (protein, UniProt Q14973 1-349)
chain: MEAHNASAPFNFTLPPNFGKRPTDLALSVILVFMLFFIMLSLGCTMEFSKIKAHLWKPKGLAIALVAQYGIMPLTAFVLGKVFRLKNIEALAILVCGCSPGGNLSNVFSLAMKGDMNLSIVMTTCSTFCALGMMPLLLYIYSRGIYDGDLKDKVPYKGIVISLVLVLIPCTIGIVLKSKRPQYMRYVIKGGMIIILLCSVAVTVLSAINVGKSIMFAMTPLLIATSSLMPFIGFLLGYVLSALFCLNGRCRRTVSMETGCQNVQLCSTILNVAFPPEVIGPLFFFPLLYMIFQLGEGLLLIAIFWCYEKFKTPKDKTKMIYTAATTEETIPGALGNGTYKGEDCSPCTA
B4: His-tagged ASBT (protein, UniProt Q12908 1-348)
chain: MNDPNSCVDNATVCSGASCVVPESNFNNILSVVLSTVLTILLALVMFSMGCNVEIKKFLGHIKRPWGICVGFLCQFGIMPLTGFILSVAFDILPLQAVVVLIIGCCPGGTASNILAYWVDGDMDLSVSMTTCSTLLALGMMPLCLLIYTKMWVDSGSIVIPYDNIGTSLVSLVVPVSIGMFVNHKWPQKAKIILKIGSIAGAILIVLIAVVGGILYQSAWIIAPKLWIIGTIFPVAGYSLGFLLARIAGLPWYRCRTVAFETGMQNTQLCSTIVQLSFTPEELNVVFTFPLIYSIFQLAFAAIFLGFYVAYKKCHGKNKAEIPESKENGTEPESSFYKANGGFQPDEK

What was measured:
[1] = target: T1, FLAG-tagged OATP1B3 (human); experiment: proximity ligation; Duolink PLA on fixed, transiently co-transfected HEK293 cells; rabbit anti-His and mouse anti-FLAG antibodies
[2] = target: T2, OATP1B3, endogenous in human liver (human (endogenous in liver tissue)); experiment: proximity ligation; Duolink PLA on frozen human liver sections; goat anti-NTCP and rabbit anti-OATP1B3 antibodies

Binder | binding [1] | binding [2]
B1 | binds | 
B2 | binds | 
B3 |  | binds
B4 | no binding | 
